Results published in the supplement of paper PMC7826260.
The list shows a part of the results. Cleavage of a single-stranded DNA pool by Rep nickase domains was read by sequencing (3 µM enzyme, 1 h, 37 °C); shown is the middle of each 90-letter strand. A value is the log2 ratio of uncut reads to the pool without enzyme; strong cutting gives strongly negative numbers. There is no active / inactive call. The scaling is to total reads, so uncut sequences can rise above 0 when many others are cut.

Tests used:
Test in all cases: uncleaved DNA left, log2 of reads against the no-enzyme library (log2 ratio); higher = less cleavage (more negative = more Rep cleavage of the k-mer); sequences stand for … in CTCGTCCG…ACCGGAGA
[1] = test system: T1, Rep nickase domain of Muscovy duck circovirus
T1 sequence (Rep 1-111, printed without the tag): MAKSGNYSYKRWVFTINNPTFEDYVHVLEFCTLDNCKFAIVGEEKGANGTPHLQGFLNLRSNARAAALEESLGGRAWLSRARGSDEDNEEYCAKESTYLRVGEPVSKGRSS
Procedure: (§1)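 A pool of 90-nt single-stranded DNAs with seven random bases just before the constant AC of the nick site (name = the seven bases) was cut by 3 µM recombinant His6-SUMO-tagged Rep nickase domain (300 nM DNA, 50 mM HEPES pH 8.0, 50 mM NaCl, 1 mM MnCl2, 1 h, 37 °C, three replicates). Uncut DNA was amplified and sequenced.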

[2] = test system: T2, Rep nickase domain of banana bunchy top virus
T2 sequence (Rep 1-94, printed without the tag): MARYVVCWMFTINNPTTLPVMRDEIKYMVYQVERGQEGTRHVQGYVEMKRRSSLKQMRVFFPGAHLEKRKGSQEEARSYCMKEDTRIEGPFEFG
Procedure: as §1

[3] = test system: T3, Rep nickase domain of cabbage leaf curl virus
T3 sequence (Rep 1-116, printed without the tag): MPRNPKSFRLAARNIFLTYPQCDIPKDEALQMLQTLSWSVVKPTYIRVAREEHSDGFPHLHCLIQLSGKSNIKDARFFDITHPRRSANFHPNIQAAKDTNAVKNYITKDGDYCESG
Procedure: as §1

[4] = test system: T4, Rep nickase domain of chickpea chlorotic dwarf virus
T4 sequence (Rep 1-124, printed without the tag): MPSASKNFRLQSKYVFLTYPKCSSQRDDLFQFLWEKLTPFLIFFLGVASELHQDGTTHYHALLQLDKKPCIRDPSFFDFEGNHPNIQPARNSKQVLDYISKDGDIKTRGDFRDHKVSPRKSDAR
Procedure: as §1

[5] = test system: T5, Rep nickase domain of faba bean necrotic yellows virus
T5 sequence (Rep 1-98, printed without the tag): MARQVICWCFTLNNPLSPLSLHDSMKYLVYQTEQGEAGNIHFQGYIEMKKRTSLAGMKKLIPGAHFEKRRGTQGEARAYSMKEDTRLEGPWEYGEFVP
Procedure: as §1

[6] = test system: T6, Rep nickase domain of maize striate mosaic virus
T6 sequence (Rep 1-117, printed without the tag): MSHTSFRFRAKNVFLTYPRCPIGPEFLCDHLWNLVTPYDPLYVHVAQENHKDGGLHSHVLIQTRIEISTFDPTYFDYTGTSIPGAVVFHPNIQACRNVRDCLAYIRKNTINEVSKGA
Procedure: as §1

[7] = test system: T7, Rep nickase domain of porcine circovirus 2
T7 sequence (Rep 2-116, printed without the tag): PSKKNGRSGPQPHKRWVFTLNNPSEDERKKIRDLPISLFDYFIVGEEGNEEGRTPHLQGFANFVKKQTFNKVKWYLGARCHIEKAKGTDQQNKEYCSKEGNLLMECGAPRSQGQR
Procedure: as §1

[8] = test system: T8, Rep nickase domain of tomato golden mosaic virus
T8 sequence (Rep 1-124, printed without the tag): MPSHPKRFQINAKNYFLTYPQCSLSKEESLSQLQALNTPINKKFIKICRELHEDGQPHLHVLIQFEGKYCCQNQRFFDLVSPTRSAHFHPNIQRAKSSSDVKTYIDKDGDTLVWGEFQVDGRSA
Procedure: as §1

[9] = test system: T9, Rep nickase domain of tomato yellow leaf curl virus
T9 sequence (Rep 1-136, printed without the tag): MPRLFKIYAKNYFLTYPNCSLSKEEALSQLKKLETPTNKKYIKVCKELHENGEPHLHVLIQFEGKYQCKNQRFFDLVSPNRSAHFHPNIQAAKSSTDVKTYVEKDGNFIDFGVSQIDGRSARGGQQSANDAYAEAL
Procedure: as §1

[10] = test system: T10, Rep nickase domain of wheat dwarf virus
T10 sequence (Rep 1-137, printed without the tag): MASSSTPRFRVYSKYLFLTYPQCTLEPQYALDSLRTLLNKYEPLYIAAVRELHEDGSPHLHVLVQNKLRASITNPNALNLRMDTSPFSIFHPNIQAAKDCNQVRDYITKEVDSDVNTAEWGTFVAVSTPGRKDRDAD
Procedure: as §1

Row | Sequence | uncleaved DNA left (log2) [1] | uncleaved DNA left (log2) [2] | uncleaved DNA left (log2) [3] | uncleaved DNA left (log2) [4] | uncleaved DNA left (log2) [5] | uncleaved DNA left (log2) [6] | uncleaved DNA left (log2) [7] | uncleaved DNA left (log2) [8] | uncleaved DNA left (log2) [9] | uncleaved DNA left (log2) [10]
1 | CTCACGG | -0.0111 | -0.00976 | 0.459 | 1.52 | -0.0387 | 1.8 | 0.0947 | 0.139 | -0.0553 | 0.00449
2 | CGTTAAA | 0.0337 | 0.0432 | -0.0122 | -0.074 | -0.0211 | -0.415 | 0.0478 | 0.114 | 0.0368 | 0.00272
3 | AGCTGCA | 0.0424 | 0.00784 | 0.0344 | 0.69 | 0.0581 | 0.393 | 0.153 | 0.0104 | 0.00517 | 0.0694
4 | TCCGTAA | -0.0613 | -0.00555 | 0.0936 | -0.14 | -0.0435 | -0.146 | -0.0953 | -0.116 | 0.107 | -0.142
5 | AAGCGAT | 0.0599 | -0.0419 | 0.167 | 1.56 | -0.056 | 1.84 | 0.136 | 0.183 | -0.158 | 0.0226
6 | TAAAACG | 0.0529 | -0.00423 | -0.993 | -1.75 | 0.0168 | -1.24 | 0.155 | 0.0285 | 0.0277 | 0.0267
7 | GGATGTG | 0.107 | -0.0215 | -0.247 | -0.0693 | 0.0267 | -0.382 | 0.173 | -0.00341 | 0.0425 | -0.00177
